Assay results published in the supplement of paper PMC9927326.
MIC of clinical C. albicans isolates, CLSI broth microdilution (ranges and time not stated); higher = less susceptible. Call: susceptible or wild type [S] / resistant or non-wild type [R] by CLSI breakpoints or epidemiological cut-offs; intermediate and dose-dependent carry no call here (the paper groups them with resistant). '<=' and '>=' mark each drug's lowest and highest value, inferred; the source prints them plain. Isolates are numbered anew.

Columns and labels:
Assay in all cases: CLSI broth microdilution.
itraconazole = compound: CCC(C)n1ncn(-c2ccc(N3CCN(c4ccc(OCC5COC(Cn6cncn6)(c6ccc(Cl)cc6Cl)O5)cc4)CC3)cc2)c1=O [itraconazole]
micafungin = compound: CCCCCOc1ccc(-c2cc(-c3ccc(C(=O)N[C@H]4C[C@@H](O)[C@@H](O)NC(=O)[C@@H]5[C@@H](O)[C@@H](C)CN5C(=O)[C@H]([C@H](O)CC(N)=O)NC(=O)[C@H]([C@H](O)[C@@H](O)c5ccc(O)c(OS(=O)(=O)O)c5)NC(=O)[C@@H]5C[C@@H](O)CN5C(=O)[C@H]([C@@H](C)O)NC4=O)cc3)no2)cc1 [micafungin]
anidulafungin = compound: CCCCCOc1ccc(-c2ccc(-c3ccc(C(=O)N[C@H]4C[C@@H](O)[C@@H](O)NC(=O)[C@@H]5[C@@H](O)[C@@H](C)CN5C(=O)[C@H]([C@@H](C)O)NC(=O)[C@H]([C@H](O)[C@@H](O)c5ccc(O)cc5)NC(=O)[C@@H]5C[C@@H](O)CN5C(=O)[C@H]([C@@H](C)O)NC4=O)cc3)cc2)cc1 [anidulafungin]
posaconazole = compound: CC[C@@H]([C@H](C)O)n1ncn(-c2ccc(N3CCN(c4ccc(OC[C@@H]5CO[C@@](Cn6cncn6)(c6ccc(F)cc6F)C5)cc4)CC3)cc2)c1=O [posaconazole]
caspofungin = compound: CC[C@H](C)C[C@H](C)CCCCCCCCC(=O)N[C@H]1C[C@@H](O)[C@@H](NCCN)NC(=O)[C@@H]2[C@@H](O)CCN2C(=O)[C@H]([C@H](O)CCN)NC(=O)[C@H]([C@H](O)[C@@H](O)c2ccc(O)cc2)NC(=O)[C@@H]2C[C@@H](O)CN2C(=O)[C@H]([C@@H](C)O)NC1=O [caspofungin]
voriconazole = compound: C[C@@H](c1ncncc1F)[C@](O)(Cn1cncn1)c1ccc(F)cc1F [voriconazole]
amphotericin B = compound: C[C@@H]1[C@H](O)[C@@H](C)/C=C/C=C/C=C/C=C/C=C/C=C/C=C/[C@H](O[C@@H]2O[C@H](C)[C@@H](O)[C@H](N)[C@@H]2O)C[C@@H]2O[C@](O)(C[C@@H](O)C[C@@H](O)[C@H](O)CC[C@@H](O)C[C@@H](O)CC(=O)O[C@H]1C)C[C@H](O)[C@H]2C(=O)O [amphotericin B]
flucytosine = compound: Nc1[nH]c(=O)ncc1F [flucytosine]
fluconazole = compound: OC(Cn1cncn1)(Cn1cncn1)c1ccc(F)cc1F [fluconazole]

| Test System | MIC (itraconazole) | MIC (micafungin) | MIC (anidulafungin) | MIC (posaconazole) | MIC (caspofungin) | MIC (voriconazole) | MIC (amphotericin B) | MIC (flucytosine) | MIC (fluconazole) |
| --- | --- | --- | --- | --- | --- | --- | --- | --- | --- |
| Candida albicans isolate 155 (Erg11p: WT, Fur1p: WT, Tac1p: I558V,A377V,F189S,N174D,M170I) | 0.03 mg/L [S] | 0.015 mg/L [S] | 0.03 mg/L [S] | 0.015 mg/L [S] | 0.03 mg/L [S] | ≤ 0.008 mg/L [S] | 0.5 mg/L [S] | ≤ 0.06 mg/L [S] | 0.5 mg/L [S] |
| Candida albicans isolate 288 (Erg11p: V488I,E266D, Fur1p: WT, Tac1p: N896S) | ≤ 0.015 mg/L [S] | ≤ 0.008 mg/L [S] | ≤ 0.015 mg/L [S] | ≤ 0.008 mg/L [S] | 0.03 mg/L [S] | ≤ 0.008 mg/L [S] | 0.5 mg/L [S] | ≤ 0.06 mg/L [S] | 0.25 mg/L [S] |
| Candida albicans isolate 105 (Erg11p: V488I,E266D, Fur1p: WT, Tac1p: N896S,I558V,A377V,F189S,N174D,M170I,K87N) | 0.06 mg/L [S] | 0.03 mg/L [S] | 0.06 mg/L [S] | 0.03 mg/L [S] | 0.12 mg/L [S] | ≤ 0.008 mg/L [S] | 0.5 mg/L [S] | ≤ 0.06 mg/L [S] | 0.5 mg/L [S] |
| Candida albicans isolate 268 (Erg11p: K342R, Fur1p: WT, Tac1p: I558V,A377V,F189S,N174D,M170I,K87N) | 0.06 mg/L [S] | 0.015 mg/L [S] | 0.12 mg/L [S] | 0.015 mg/L [S] | 0.06 mg/L [S] | ≤ 0.008 mg/L [S] | 0.25 mg/L [S] | ≤ 0.06 mg/L [S] | 0.25 mg/L [S] |
| Candida albicans isolate 74 (Erg11p: E266D, Fur1p: WT, Tac1p: I558V,A377V,F189S,N174D,M170I,K87N) | 0.06 mg/L [S] | ≤ 0.008 mg/L [S] | 0.06 mg/L [S] | 0.03 mg/L [S] | 0.06 mg/L [S] | ≤ 0.008 mg/L [S] | 0.5 mg/L [S] | ≤ 0.06 mg/L [S] | 0.25 mg/L [S] |
| Candida albicans isolate 175 (Erg11p: Y132H,T123I, Fur1p: R101C, Tac1p: WT) | 0.06 mg/L [S] | 0.015 mg/L [S] | ≤ 0.015 mg/L [S] | 0.03 mg/L [S] | 0.015 mg/L [S] | 0.25 µg/mL | 0.25 mg/L [S] | 0.12 mg/L [S] | 4 µg/mL |
| Candida albicans isolate 318 (Erg11p: V488I,E266D, Fur1p: WT, Tac1p: N896S,I895T) | ≤ 0.015 mg/L [S] | 0.015 mg/L [S] | ≤ 0.015 mg/L [S] | 0.015 mg/L [S] | 0.03 mg/L [S] | ≤ 0.008 mg/L [S] | 0.25 mg/L [S] | ≤ 0.06 mg/L [S] | 0.25 mg/L [S] |
| Candida albicans isolate 137 (Erg11p: WT, Fur1p: R101C, Tac1p: WT) | ≤ 0.015 mg/L [S] | 0.015 mg/L [S] | ≤ 0.015 mg/L [S] | 0.015 mg/L [S] | 0.03 mg/L [S] | ≤ 0.008 mg/L [S] | 0.5 mg/L [S] | 0.5 mg/L [S] | 0.25 mg/L [S] |
| Candida albicans isolate 36 (Erg11p: V488I,E266D, Fur1p: WT, Tac1p: N896S,M170V,S108N) | ≤ 0.015 mg/L [S] | ≤ 0.008 mg/L [S] | 0.03 mg/L [S] | 0.015 mg/L [S] | 0.03 mg/L [S] | ≤ 0.008 mg/L [S] | 0.5 mg/L [S] | ≤ 0.06 mg/L [S] | ≤ 0.12 mg/L [S] |
| Candida albicans isolate 211 (Erg11p: V488I,E266D, Fur1p: WT, Tac1p: N896S,I895T) | 0.03 mg/L [S] | ≤ 0.008 mg/L [S] | 0.06 mg/L [S] | 0.015 mg/L [S] | 0.03 mg/L [S] | ≤ 0.008 mg/L [S] | 0.25 mg/L [S] | ≤ 0.06 mg/L [S] | 0.5 mg/L [S] |
| Candida albicans isolate 220 (Erg11p: Y132H,T123I, Fur1p: R101C, Tac1p: WT) | 0.12 mg/L [S] | 0.015 mg/L [S] | ≤ 0.015 mg/L [S] | 0.06 mg/L [S] | 0.015 mg/L [S] | 0.5 µg/mL | 0.5 mg/L [S] | ≤ 0.06 mg/L [S] | 4 µg/mL |
| Candida albicans isolate 320 (Erg11p: G465S,Y132H, Fur1p: R101C, Tac1p: L704F) | 0.5 mg/L [R] | 0.015 mg/L [S] | ≤ 0.015 mg/L [S] | 0.5 mg/L [R] | 0.03 mg/L [S] | 4 mg/L [R] | 0.5 mg/L [S] | 0.25 mg/L [S] | 32 mg/L [R] |
| Candida albicans isolate 362 (Erg11p: D153E, Fur1p: WT, Tac1p: N896S) | 0.06 mg/L [S] | 0.015 mg/L [S] | 0.03 mg/L [S] | 0.03 mg/L [S] | 0.03 mg/L [S] | ≤ 0.008 mg/L [S] | 0.25 mg/L [S] | ≤ 0.06 mg/L [S] | 0.5 mg/L [S] |
| Candida albicans isolate 181 (Erg11p: WT, Fur1p: WT, Tac1p: N896S) | ≤ 0.015 mg/L [S] | ≤ 0.008 mg/L [S] | ≤ 0.015 mg/L [S] | 0.015 mg/L [S] | 0.015 mg/L [S] | ≤ 0.008 mg/L [S] | 0.5 mg/L [S] | ≤ 0.06 mg/L [S] | 0.25 mg/L [S] |
| Candida albicans isolate 349 (Erg11p: E266D, Fur1p: WT, Tac1p: I558V,A377V,F189S,N174D,M170I,K87N) | 0.06 mg/L [S] | ≤ 0.008 mg/L [S] | 0.06 mg/L [S] | 0.03 mg/L [S] | 0.03 mg/L [S] | ≤ 0.008 mg/L [S] | 1 mg/L [S] | ≤ 0.06 mg/L [S] | 0.5 mg/L [S] |
| Candida albicans isolate 223 (Erg11p: G465S,Y132H, Fur1p: R101C, Tac1p: R693K) | 1 mg/L [R] | 0.03 mg/L [S] | ≤ 0.015 mg/L [S] | 0.5 mg/L [R] | 0.03 mg/L [S] | ≥ 8 mg/L [R] | 0.25 mg/L [S] | 0.25 mg/L [S] | 64 mg/L [R] |
